Reference: PubChem BioAssay AID904 (National Center for Advancing Translational Sciences (NCATS), 2007)
Screen size: about 55,000 compounds; about 530 (0.96%) were called active. The inconclusive results got no clear call from the source; some entries with a clear call stand among them for comparison. Calls come from the whole dose curve; as a rule, active = well fitted cell-killing curve with a large enough effect; inconclusive = small, poorly fitted or top-dose-only effect; inactive = no such curve, though single readings can be large or run the other way. Where the call is inconclusive, the potency comes from a doubtful curve fit.
Potency is the fitted concentration of half-maximal effect; tags give direction and shape of the fitted curve.

Experiment: qHTS Screen for Compounds that Selectively Target Cancer Cells with p53 Mutations: Cytotoxicity of p53 Null Cells at the Nonpermissive Temperature; note: nearly all actives have a fitted effect of over 50% in size;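 for activity, negative = cell killing: 0% = DMSO only and -100% = full killing by 100 µM tamoxifen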
Details: H1299 p53-null (neo) cells, 39C, ATPlite viability, 24 h; activity, negative = cell killing: at 46.1 µM (top of the series)
How it was run: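 Temperature-shift cytotoxicity format: compound titrations on p53-null or A138V-expressing H1299 cells held 24 hr at 39C, cell ATP then measured, AC50 from Hill model.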
In the case of Cc1ccn2c(Nc3ccc4c(c3)OCCO4)c(-c3ccc(Cl)s3)nc2c1, the activity, negative = cell killing is reported as inconclusive: -36.7% [cytotoxic].
In the case of CCNC(=O)c1cnc2sc(N3CCCCCC3)nn2c1=O, the Potency is reported as inconclusive: 0.0316 µM [cytotoxic, full curve].
For CCOc1ccc(OCC)c(NC(=O)Cn2ncc3c4ccccc4n(Cc4ccccc4)c3c2=O)c1, the Potency was inconclusive: 0.0316 µM [cytotoxic, full curve, poor fit].
In the case of COc1cc(-c2noc(-c3ccc(NCc4cccnc4)c([N+](=O)[O-])c3)n2)cc(OC)c1OC, the “activity, negative = cell killing” value is reported as inactive: -7.78%.
With Cc1ccc(CN(C(=O)COc2cccc([N+](=O)[O-])c2)c2ccccn2)o1 the Potency was inconclusive: 1.78 µM [cytotoxic, partial curve].
For CC(C)C(=O)Nc1cccc(-c2nc3ccccc3c(=O)o2)c1, the Potency was inconclusive: 31.6 µM [cytotoxic, single point].
In the case of CC(=O)Nc1ccc(/C=N/Nc2nc3ccccc3[nH]2)cc1, the Potency is reported as inconclusive: 22.4 µM [cytotoxic, single point].
In the case of Cc1cccc(-c2nc(CN3CCCC(C(=O)NCc4ccc(Cl)cc4)C3)c(C)o2)c1 (configuration not stated), the Potency is reported as inconclusive: 31.6 µM [cytotoxic, single point].
For Cc1cc(C)cc(NC(=O)c2oc3ccc4c(c3c2C)C(=O)CC(C)(C)O4)c1, the Potency was inconclusive: 3.16 µM [cytotoxic, full curve].
In the case of Cc1ccccc1NC(=O)Cn1c(=O)n(Cc2ccc3c(c2)OCO3)c(=O)c2ccc(C(=O)NC3CCCCC3)cc21, the “activity, negative = cell killing” value is reported as inactive: -0.93%.
For CC(C)CN(CCNC(=O)c1cn(C)c2ccc(S(=O)(=O)N3CCOCC3)cc2c1=O)CC(C)C, the Potency was inconclusive: 12.6 µM [cytotoxic, partial curve, poor fit].
With Cc1nc2c(-c3ccccc3)c(C)nn2c(C)c1CCC(=O)NCc1ccc(Cl)cc1 the Potency was inconclusive: 0.0794 µM [cytotoxic, full curve, poor fit].
With COc1ccc2oc(=O)c(C(=O)Nc3cccc(C(=O)O)c3)cc2c1 the Potency was active: 7.94 µM.
In the case of CCOC(=O)c1cc(OC(=O)c2ccc(OC)cc2)n(-c2ccccc2)n1, the Potency is reported as inconclusive: 0.251 µM [cytotoxic, full curve, poor fit].
With COc1ccccc1-c1cc2nc(C)c(CCC(=O)NCCc3ccc(SC)cc3)c(C)n2n1 the “activity, negative = cell killing” value was inactive: 11.2%.
For CCOC(=O)c1ccc(NS(=O)(=O)c2ccc3c(c2)OCCO3)cc1, the “activity, negative = cell killing” value was inactive: 0.585%.
For CCOc1ccc(NC(=O)C2CCN(S(=O)(=O)c3c(C)noc3/C=C/c3c(C)cc(C)cc3C)CC2)cc1, the Potency was inconclusive: 0.316 µM [cytotoxic, full curve, poor fit].
In the case of O=C(CCC1N=C2c3ccccc3N=C(SCc3ccccc3F)N2C1=O)NCc1ccccc1 (configuration not stated), the Potency is reported as inconclusive: 20 µM [cytotoxic, single point].
With N#CC1=C(SCC(=O)NC23CC4CC(CC(C4)C2)C3)NC(=O)C(C#N)C12CCCCC2 (configuration not stated) the Potency was inconclusive: 10 µM [cytotoxic, partial curve, poor fit].
For O=C(c1ccccc1)c1cn(Cc2ccc(F)cc2)c2ccccc2c1=O, the Potency was inconclusive: 11.2 µM [cytotoxic, partial curve, poor fit].
In the case of CCOC(=O)C1CCCN(c2c(C(=O)c3ccc(OCC)cc3)cnc3ccccc23)C1 (configuration not stated), the Potency is reported as inconclusive: 31.6 µM [cytotoxic, single point].
In the case of Cc1ccc(NC(=O)Nc2cccc(C)n2)cc1, the Potency is reported as inconclusive: 10 µM [cytotoxic, partial curve].
In the case of CCOc1ccc(NC(=O)NCCN2CCN(c3cccc(C)c3C)CC2)cc1, the Potency is reported as inconclusive: 20 µM [cytotoxic, single point].
With Cc1ccc(Nc2ccc3cc(S(=O)(=O)N4CCCCC4)ccc3n2)cc1F the Potency was inconclusive: 11.2 µM [cytotoxic, single point].
In the case of O=C(c1cc(-c2cccc(Cl)c2)on1)N1CCCCC1, the Potency is reported as inconclusive: 31.6 µM [cytotoxic, single point].
For Cc1ccccc1NS(=O)(=O)c1ccc2[nH]cc(C(=O)NC3CCCCC3)c(=O)c2c1, the “activity, negative = cell killing” value was inactive: -2.96%.
For COc1cccc(NC(=O)N(Cc2c[nH]c3ccccc23)C2CCCCCC2)c1, the Potency was inconclusive: 20 µM [cytotoxic, partial curve, poor fit].
In the case of CCOc1cccc2sc(N3CCN(C(=O)c4ccco4)CC3)nc12, the “activity, negative = cell killing” value is reported as inactive: 3.25%.
For COc1ccc(OC)c(-c2noc(N3CCN(c4cccc(C(F)(F)F)c4)CC3)n2)c1, the “activity, negative = cell killing” value was inactive: -14.4%.
With Cc1cc(C)c2c(NC(=O)c3ccccc3Cl)c(C(=O)NCc3ccc(Cl)cc3)sc2n1 the Potency was inconclusive: 25.1 µM [cytotoxic, single point].
In the case of Nc1ccc2nc(-c3ccc(N)c(Cl)c3)[nH]c2c1, the Potency is reported as inconclusive: 15.8 µM [cytotoxic, single point].
In the case of CCCc1cc(=O)[nH]c(Nc2cc(Cl)cc(Cl)c2)n1, the Potency is reported as inconclusive: 2.82 µM [cytotoxic, full curve, poor fit].
In the case of COc1ccc(CN(Cc2ccco2)C(=O)COc2ccccc2Cl)cc1, the Potency is reported as inconclusive: 22.4 µM [cytotoxic, single point].
In the case of O=S(=O)(c1cccc(Cl)c1)n1c(/C=C/c2ccccc2Cl)nc2ccccc21, the Potency is reported as active: 2.82 µM.
For Cc1c(Cl)cccc1NC(=O)CSc1nc(=O)[nH]c2c1CCC2, the Potency was inconclusive: 0.005 µM [cytotoxic, full curve, poor fit].
In the case of O=C(Cn1cc(SCc2ccc(Cl)cc2)c2ccccc21)N1CCOCC1, the Potency is reported as inconclusive: 35.5 µM [cytotoxic, partial curve].
For CC(C)Oc1ccc(C(=O)Nc2nnc3n2CCS3)cc1, the Potency was inconclusive: 10 µM [cytotoxic, partial curve].
For COc1cccc(CNC(=O)Cn2ncn3c(cc4ccccc43)c2=O)c1, the Potency was inconclusive: 31.6 µM [cytotoxic, single point].
With CCOc1ccc(NC(=O)CSc2c3c(nc4ccccc24)CCCC3)cc1 the Potency was inconclusive: 28.2 µM [cytotoxic, single point].
In the case of O=C(NCC1CCN(Cc2cccc(Cl)c2)CC1)Nc1ccc(F)c(Cl)c1, the Potency is reported as inconclusive: 31.6 µM [cytotoxic, single point].
For CCOc1ccccc1N1CC(c2nc3ccccc3n2CCCOc2ccc(OC)cc2)CC1=O (configuration not stated), the Potency was inconclusive: 10 µM [cytotoxic, partial curve, poor fit].
In the case of CCc1ccc(C(=O)CC2(O)C(=O)N(Cc3ccc(C)cc3)c3ccccc32)cc1 (configuration not stated), the Potency is reported as inconclusive: 11.2 µM [cytotoxic, partial curve].
For Cc1ccc2occ(CC(=O)N(Cc3ccc(Cl)cc3)Cc3ccco3)c2c1, the Potency was inconclusive: 12.6 µM [cytotoxic, partial curve, poor fit].
With COC(=O)c1c(-c2ccc(Cl)cc2)noc1N1CCN(c2ccccc2OC)CC1 the Potency was inconclusive: 0.005 µM [cytotoxic, full curve, poor fit].
With CCC(C)Nc1nc2c(c(=O)[nH]c(=O)n2C)n1Cc1ccc(F)cc1 (configuration not stated) the Potency was inconclusive: 0.01 µM [cytotoxic, full curve, poor fit].
In the case of Cc1ccccc1Nc1c(-c2ccc(N3CCOCC3)cc2)nc2cccc(C)n12, the Potency is reported as inconclusive: 2.51 µM [cytotoxic, full curve, poor fit].
For CCOc1ccccc1CNC(=O)c1ccc2nc(N3CCC(C)CC3)sc2c1, the “activity, negative = cell killing” value was inactive: 12.2%.
In the case of COc1ccc(CNCc2ccc(C(=O)O)s2)cc1, the Potency is reported as inconclusive: 20 µM [cytotoxic, single point].
In the case of O=C(CCS(=O)(=O)c1ccc(Br)s1)Nc1cc(C(F)(F)F)cc(C(F)(F)F)c1, the Potency is reported as inconclusive: 15.8 µM [cytotoxic, single point].
In the case of CCOc1ccc(CNC(=O)CSc2c3c(nc4cc(Cl)ccc24)CCCC3)cc1, the “activity, negative = cell killing” value is reported as inactive: -5.11%.
In the case of Cc1ccc(S(=O)(=O)Nc2cc(Cl)c3oc4c(c3c2)CCCC4)cc1, the Potency is reported as inconclusive: 31.6 µM [cytotoxic, single point].
With O=C(COc1ccccc1F)Nc1ccc2nc(SCC(=O)N3CCOCC3)sc2c1 the Potency was inconclusive: 0.005 µM [cytotoxic, full curve, poor fit].
In the case of CCCNC(=O)c1cc2n(n1)CCCN(Cc1ccc(C)cc1)C2=O, the “activity, negative = cell killing” value is reported as inactive: -2.43%.
For CCOc1ccc(S(=O)(=O)N/N=C(\C)c2ccc(Cl)c(Cl)c2Cl)cc1, the “activity, negative = cell killing” value was inactive: 13.3%.
With COc1cccc(C(=O)Nc2nc3nc(C)c(Cc4ccccc4)c(=O)n3[nH]2)c1 the Potency was inconclusive: 3.16 µM [cytotoxic, partial curve].
With Cc1ccccc1OCC(=O)N/N=C/c1ccc([N+](=O)[O-])o1 the Potency was inconclusive: 35.5 µM [cytotoxic, single point].
For Cc1ccc(CNC(=O)CN2N=C(c3ccc(C)cc3)CCC2=O)cc1, the Potency was inconclusive: 35.5 µM [cytotoxic, single point].
In the case of O=C(NCCCN1CCN(c2ccccc2F)CC1)c1ccc2nc(Cc3ccccc3)oc2c1, the Potency is reported as inconclusive: 12.6 µM [cytotoxic, partial curve, poor fit].
For CCOc1ccc(-c2cc(NC(=O)Nc3ccccc3Cl)c(C(=O)OC)s2)cc1, the Potency was inconclusive: 7.94 µM [cytotoxic, partial curve].
With N#Cc1c(C(F)(F)F)cc(-c2cccs2)nc1SCC(=O)Nc1cccc(Br)c1 the Potency was inconclusive: 0.199 µM [cytotoxic, partial curve, poor fit].
In the case of Cc1cccc(CSc2ncc(Cl)c(C(=O)Nc3nnc(C)s3)n2)c1, the “activity, negative = cell killing” value is reported as inactive: -11.3%.
In the case of Cc1ccc(CNC(=O)CN2C(=O)C3CCCCN3c3ccc(C(=O)N(C)C)cc32)cc1 (configuration not stated), the Potency is reported as inconclusive: 0.891 µM [cytotoxic, full curve, poor fit].
